The structures appear in SMILES notation. Values joined by “and” are separate entries in the source; they are usually repeats but may differ in a detail not shown here. Equal entries are not always repeated. In all, about 150,000 compounds went through this assay and about 6,500 (4.3%) were called active. Inconclusive results (about 12%) are left out. Calls come from the whole dose curve; as a rule, active = well fitted inhibition curve with a large enough effect (not every such curve was filed as active); inconclusive = small, poorly fitted or top-dose-only effect, or another doubt; inactive = no such curve, though single readings can be large or run the other way. The entries are a selection whose mix differs from that of the whole data set. Where a structure was tested more than once in an assay, its records may differ in their call.
% is set by controls: 0 for no effect and ±100 for the full control effect; potency is the fitted concentration of half-maximal effect.

The test addresses 15-hydroxyprostaglandin dehydrogenase [NAD(+)] (Homo sapiens) (UniProt P15428). Description: qHTS Assay for Inhibitors of HPGD (15-Hydroxyprostaglandin Dehydrogenase). The conditions noted are these: purified HPGD, NADH fluorescence kinetic, PGE2 substrate; activity change, negative = inhibition: stronger effect = lower value. The text has this: Human 15-Hydroxyprostaglandin dehydrogenase (HPGD) catalyzes the inactivation of prostaglandin E2, and plays a major role in cancer biology by antagonizing the oncogenic potential of cyclooxygenase type 2 (COX2). Assays are available, based on absorbance/fluorescence increase of NADH with the substrate 15-OH prostaglandin E2. References 1. Myung SJ, Rerko RM, Yan M, Platzer P, Guda K, Dotson A, Lawrence E, Dannenberg AJ, Lovgren AK, Luo G, Pretlow TP, Newman RA, Willis J, Dawson D, Markowitz SD. 15-Hydroxyprostaglandin dehydrogenase is an in vivo suppressor of colon tumorigenesis. […] 2. Yan M, Rerko RM, Platzer P, Dawson D, Willis J, Tong M, Lawrence E, Lutterbaugh J, Lu S, Willson JK, Luo G, Hensold J, Tai HH, Wilson K, Markowitz SD. 15-Hydroxyprostaglandin dehydrogenase, a COX-2 oncogene antagonist, is a TGF-beta-induced suppressor of human gastrointestinal cancers. Proc Natl Acad Sci U S A. 2004 Dec 14;101(50):17468-73. 3. Yang L, Amann JM, Kikuchi T, Porta R, Guix M, Gonzalez A, Park KH, Billheimer D, Arteaga CL, Tai HH, Dubois R, Carbone DP, Johnson DH. Inhibition of Epidermal Growth Factor Receptor Signaling Elevates 15-Hydroxyprostaglandin Dehydrogenase in Non-Small-Cell Lung Cancer. Cancer Res. 2007 Jun 15;67(12):5587-5593. Inhibition of HPGD activity was screened by utilizing prostaglandin as an electron donor and NAD+ as an electron acceptor/cofactor. An increase in the fluorescence intensity due to conversion of NAD+ to NADH was used to measure the enzyme activity. NIH Chemical Genomics Center [NCGC] Structural Genomics Consortium [SGC]
Sequence of UniProt P15428 (P15428 whole entry, looked up): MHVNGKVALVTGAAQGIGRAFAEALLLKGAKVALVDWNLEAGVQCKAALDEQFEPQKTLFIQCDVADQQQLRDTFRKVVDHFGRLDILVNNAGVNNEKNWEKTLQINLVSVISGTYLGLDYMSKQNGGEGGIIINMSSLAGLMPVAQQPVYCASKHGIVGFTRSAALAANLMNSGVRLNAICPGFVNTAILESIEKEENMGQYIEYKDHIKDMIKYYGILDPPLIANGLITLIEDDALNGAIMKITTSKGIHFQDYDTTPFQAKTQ
Buffer: 50 mM Tris-HCl, 0.01% Tween 20, pH 8. Enzyme Buffer: 50 mM Tris-HCl, 0.5 mM NAD+ and 0.01% Tween 20, pH 8. Reagents/Controls: Buffer in columns 3 and 4 as negative control (no enzyme). Substrate/cofactor solution: 1 mM NAD+ and 30 uM prostaglandin (Sigma, prostaglandin E2, # P5640) final concentrations dispensed throughout the plate. Enzyme: 20 nM HPGD final concentration in columns 1, 2, 5-48. Column 1 and 2 is neutral (100% activity). A titration of control inhibitor GW5074 (G6416 Sigma-Aldrich, St. Louis, MO) top concentration 10 mM in DMSO, then 1:2 dilution for a total of 16 concentrations in duplicate) was pin-transferred into column 2. Assay Steps: Three uL of enzyme were dispensed to 1536-well Greiner black solid bottom plates. Compounds and control inhibitor (23 nL) were transferred via Kalypsys PinTool. The plates were incubated for 15 min at room temperature, and then 1 uL of substrate/cofactor solution was added to start the reaction. The plates were immediately transferred to and read 5 times every 30 seconds on ViewLux High-throughput CCD imager (Perkin-Elmer) using 360 nm excitation and 450 nm emission fluorescence protocol. The fluorescence intensity difference between the last and the first time points was used to compute reaction progress.
On the technique in general: qHTS replaces the single test concentration by a dilution series.
For `CNC(C)[C@@H](O)c1ccccc1` (stereo partly specified), the activity change, negative = inhibition was inactive: -7.34%.

Take `CC(C)c1cccc(C(C)C)c1O`: the activity change, negative = inhibition is inactive: -2.36% [middle of 4 runs].

For the compound `CCCCC[CH2][Hg][S]C1=C2N=CNC2NC(N)=N1` (stereo unspecified), the Potency is active: 0.708 µM.

On to `N=C(N)SCc1ccc(Cl)c2ccccc12` (tested in a mixture with another compound), for which the activity change, negative = inhibition was inactive: -10.4%.

As to `O=C(O)CNC(=O)C(CS)Cc1ccccc1` (stereo unspecified), the activity change, negative = inhibition was inactive: -13.3%.

In the case of `O=C(O)c1ccccc1Nc1cccc(C(F)(F)F)c1`, the activity change, negative = inhibition was inactive: -12.3% and inactive: -17.9%.

On to `CCOC(=O)C1=C(C)NC(C)=C(C(=O)OC)C1c1cccc(Cl)c1Cl` (stereo unspecified), for which the activity change, negative = inhibition is inactive: -19.6% and inactive: -13.7%.

Turning to `COc1ccc(-c2nc3ccccc3n2OC(=O)N(C)C)cc1`, the activity change, negative = inhibition is inactive: 77.6%.

On to `NC(N)=Nc1ccc2[nH]c3c(c2c1)C[C@]1(O)[C@@H]2Cc4ccc(O)c5c4[C@]1(CCN2CC1CC1)[C@@H]3O5`, for which the activity change, negative = inhibition was inactive: -13.9%.

Take `CN(C)C(=O)On1c(-c2ccccc2)nc2ccc(Cl)cc21`: the activity change, negative = inhibition is inactive: 124%.

For the compound `c1ccc2c(c1)[nH]c1cnccc12`, the activity change, negative = inhibition was inactive: -7.11%.

For `COc1cc(-c2ccc(=O)[nH]n2)ccc1OC(F)F`, the activity change, negative = inhibition was inactive: -21%.

With `CCCCCCCCC(=O)NCc1ccc(O)c(OC)c1`, the activity change, negative = inhibition is inactive: -5.36%.

For the compound `CCCCC/C=C\C/C=C\C/C=C\C/C=C\CCCC(=O)O`, the activity change, negative = inhibition was inactive: -3.23%.

With `CCCSc1ccc2nc(NC(=O)OC)[nH]c2c1`, the activity change, negative = inhibition is inactive: -19.4% and inactive: -22.8%.

For the compound `O=C1/C(=C/c2cc3c(cc2Cl)OCO3)N2CCC1CC2`, the Potency is active: 22.4 µM.

Regarding `O=c1c(O)c(-c2ccc(O)c(O)c2)oc2cc(O)cc(O)c12`, the activity change, negative = inhibition is inactive: -25.3% and inactive: -12.4% and inactive: -26%.

Regarding `CCCN1CCO[C@@H]2c3cc(O)ccc3OC[C@H]21`, the activity change, negative = inhibition is inactive: -7.05% and inactive: -3.01%.

On to `Brc1c(NC2=NCCN2)ccc2nccnc12`, for which the Potency is active: 22.4 µM.

Regarding `C=CCN1C(=O)/C(=C\c2ccc(N3CCOCC3)o2)C(=O)NC1=S`, the activity change, negative = inhibition is inactive: -23.1%.

In the case of `COC(=O)NC(=S)Nc1ccccc1NC(=S)NC(=O)OC`, the activity change, negative = inhibition was inactive: -14.7%.

In the case of `CC(C)(c1ccc(O)cc1)c1ccc(O)cc1`, the activity change, negative = inhibition was inactive: -6.47%.

Regarding `Cc1c(O)c(O)cc2c1CC=C1[C@]3(C)CC[C@]4(C)CC[C@@](C)(C(=O)O)CC4[C@]3(C)CC[C@]12C` (stereo partly specified), the Potency was active: 17.8 µM.

Regarding `COc1ccc(OCCn2cc(/C=C(\C#N)C(=O)NCc3ccco3)c3ccccc32)cc1`, the activity change, negative = inhibition was inactive: 396%.

Regarding `CNCCC(Oc1ccc(C(F)(F)F)cc1)c1ccccc1` (stereo unspecified), the activity change, negative = inhibition is inactive: 1.58% and inactive: -7.49% and inactive: 6.79%.

With `Clc1ccc(C(c2ccc(Cl)cc2)C(Cl)(Cl)Cl)cc1`, the activity change, negative = inhibition is inactive: -8.03%.

Consider `CC[C@H]1CN2CCc3cc(OC)c(OC)cc3[C@H]2C[C@@H]1C[C@@H]1NCCc2cc(OC)c(OC)cc21`, for which the activity change, negative = inhibition is inactive: -7.55%.

For `O=c1cc(-c2ccc(O)c(O)c2)oc2cc(O)cc(O)c12`, the activity change, negative = inhibition is inactive: -28.8%.

On to `CN(C)c1ccc(/C=C2/C(=O)NC(=O)N(Cc3ccco3)C2=O)cc1`, for which the Potency is active: 10 µM.

Consider `CCn1cc(C(=O)O)c(=O)c2cc3c(cc21)OCO3`, for which the activity change, negative = inhibition was inactive: -13.5% and inactive: -7.71% and inactive: -12.4%.

In the case of `Cc1ccc(-c2nc3ccc(Cl)cc3n2OC(=O)N(C)C)cc1`, the activity change, negative = inhibition is inactive: 37.3%.

On to `C=C(C)[C@H]1Cc2c(ccc3c2O[C@@H]2COc4cc(OC)c(OC)cc4[C@@H]2C3=O)O1`, for which the activity change, negative = inhibition was inactive: 0.318% and inactive: -12.3%.

Take `CN(N=O)c1cc(O)ccc1O`: the Potency is active: 14.1 µM.

Consider `Nc1nc(=S)c2ncn([C@H]3O[C@@H](CO)[C@@H](O)[C@@H]3O)c2[nH]1`, for which the activity change, negative = inhibition is inactive: -16.3%.

With `O=c1[nH]c(=O)n(CCC2=CCCCC2)c(O)c1C=Nc1cccc(F)c1`, the activity change, negative = inhibition is inactive: 31.1%.

Turning to `CC[C@H]1CN2CCc3cc(OC)c(OC)cc3[C@@H]2C[C@@H]1C[C@H]1NCCc2cc(OC)c(OC)cc21`, the activity change, negative = inhibition was inactive: -7.73% and inactive: -5.8%.

For the compound `CNC(C)C(O)c1ccccc1` (stereo unspecified), the activity change, negative = inhibition was inactive: -1.93%.

For the compound `CN[C@@H]1C[C@H]2O[C@@](C)([C@@H]1OC)n1c3ccccc3c3c4c(c5c6ccccc6n2c5c31)C(=O)NC4`, the activity change, negative = inhibition was inactive: -25.7%.

With `Cc1ccc(C(=O)c2ccc(CC(=O)O)n2C)cc1`, the activity change, negative = inhibition is inactive: -25.9%.

Take `CC1CCCC(=O)CCC/C=C/c2cc(O)cc(O)c2C(=O)O1` (stereo unspecified): the activity change, negative = inhibition is inactive: -21.5%.

Turning to `NC(N)=NC(=O)c1nc(Cl)c(N)nc1N`, the activity change, negative = inhibition is inactive: -25%.

As to `CNCC[C@@H](Oc1ccc(C(F)(F)F)cc1)c1ccccc1`, the activity change, negative = inhibition is inactive: -11.7%.

On to `c1ccc2cc3c(cc2c1)-c1cccc2cccc-3c12`, for which the activity change, negative = inhibition is inactive: 45.6%.

On to `NC1CC1c1ccccc1` (stereo unspecified), for which the activity change, negative = inhibition was inactive: -3.59%.

As to `COc1cc(-n2c(=S)[nH]c3ccccc3c2=O)c(Cl)cc1Cl`, the activity change, negative = inhibition was inactive: 77.6%.

Turning to `C[C@@H]1CC[C@H]2[C@@H](C)C(=O)O[C@@H]3OC4(C)CC[C@@H]1[C@]32OO4`, the activity change, negative = inhibition was inactive: -7.73%.

Take `Cc1ccc(-n2c(/C=C/c3ccc4c(c3)OCO4)nc3ccccc3c2=O)cc1`: the activity change, negative = inhibition was inactive: 99%.

As for `CCCC/C(C)=C/[C@@H](NP(=O)(c1ccccc1)c1ccccc1)c1ccccc1`, the activity change, negative = inhibition is inactive: -13.8%.

On to `Nc1nc(N)c2nc(CNc3ccc(C(=O)NC(CCC(=O)O)C(=O)O)cc3)cnc2n1` (stereo unspecified), for which the activity change, negative = inhibition is inactive: -26.6%.

In the case of `CC(C(=O)O)c1ccc(-c2ccccc2)c(F)c1` (stereo unspecified), the activity change, negative = inhibition was inactive: -25.2% and inactive: -27.6%.

With `CCN(CC)c1ccc(/C=C2\C(=O)NC(=O)N(Cc3ccco3)C2=O)cc1`, the Potency is active: 15.8 µM.

Values taken from PubChem BioAssay AID894 (National Center for Advancing Translational Sciences (NCATS), 2007).
